Measurements as given in PubChem BioAssay AID488969 (Vanderbilt High Throughput Screening Facility, 2010).
In all, about 110,000 compounds were measured (“z-score”: median about -0.1, highest 2% from about 2 on). Some of the results follow. Active and inactive are the calls of the source.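 Rule for the calls: active = z-score in the third read window above 3 or below -3; inactive = the rest.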

Molecular target: Metabotropic glutamate receptor 8 (Rattus norvegicus) (UniProt P70579)
Assay: mGluR8 Gi/Go-coupled signaling modulation – cell-based, rat, thallium flux, HTS, primary screen (AID 488969)
Conditions: HEK293 rat mGluR8, GIRK (G protein-gated inwardly rectifying potassium channel) thallium flux, FluoZin2; at 10 µM; stronger effect = higher value; submaximal glutamate (EC20) added with thallium

UniProt P70579, sequence (P70579 whole entry, looked up): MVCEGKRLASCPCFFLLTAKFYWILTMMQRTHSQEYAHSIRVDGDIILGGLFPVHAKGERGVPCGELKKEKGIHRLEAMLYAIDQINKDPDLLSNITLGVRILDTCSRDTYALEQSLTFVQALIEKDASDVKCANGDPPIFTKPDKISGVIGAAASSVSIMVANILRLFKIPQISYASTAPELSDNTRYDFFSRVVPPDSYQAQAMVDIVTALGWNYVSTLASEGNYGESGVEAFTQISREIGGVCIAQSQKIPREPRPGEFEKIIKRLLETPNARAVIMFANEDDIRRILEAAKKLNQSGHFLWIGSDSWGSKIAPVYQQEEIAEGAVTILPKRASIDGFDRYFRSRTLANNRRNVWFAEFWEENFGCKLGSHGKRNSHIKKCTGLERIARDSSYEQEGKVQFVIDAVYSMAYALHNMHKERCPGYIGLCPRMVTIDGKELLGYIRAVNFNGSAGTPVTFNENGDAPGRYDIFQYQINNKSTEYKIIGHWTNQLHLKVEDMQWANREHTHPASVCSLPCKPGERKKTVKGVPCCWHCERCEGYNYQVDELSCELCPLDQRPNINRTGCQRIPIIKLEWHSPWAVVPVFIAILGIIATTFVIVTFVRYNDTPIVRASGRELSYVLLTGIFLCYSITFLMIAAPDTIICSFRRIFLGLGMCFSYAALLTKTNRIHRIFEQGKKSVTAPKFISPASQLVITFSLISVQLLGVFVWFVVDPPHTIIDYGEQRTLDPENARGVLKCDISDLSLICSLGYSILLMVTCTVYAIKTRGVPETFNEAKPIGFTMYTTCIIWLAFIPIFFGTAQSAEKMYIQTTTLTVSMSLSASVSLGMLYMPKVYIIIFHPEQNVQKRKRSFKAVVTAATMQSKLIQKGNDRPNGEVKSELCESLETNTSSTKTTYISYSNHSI

In order of rising z-score:
1. Cc1ccc(C(=O)Nc2ncc3c(Cl)cccc3n2)cc1  -1.32
2. CN(C)C(=O)Nc1cnc2ccccc2c1  -1.01
3. CCC(C(=O)OC)n1cnc2c(nnn2-c2cccc(Cl)c2)c1=O (stereo not drawn)  -0.889
4. COc1ccccc1NC(=O)N(Cc1ccco1)Cc1cc2cccc(C)c2[nH]c1=O  -0.837
5. CC(C)CN(C(=O)c1ccc(=O)n(C)n1)c1nc2ccccc2s1  -0.793
6. Cn1c(Cc2cccs2)nnc1SC/C=C/c1ccccc1  -0.741
7. Cc1c(NS(=O)(=O)c2ccc(N(C)C3CCCCC3)c([N+](=O)[O-])c2)c(=O)n(-c2ccccc2)n1C  -0.65
8. CC(Nc1cc(N2CCCC2)ccc1[N+](=O)[O-])c1ccccc1 (stereo not drawn)  -0.624
9. CCOC(=O)CC(=O)CSC1=C(C#N)C(c2ccccc2OC)CC(=O)N1 (stereo not drawn)  -0.591
10. COC(=O)c1ccccc1NC(=O)C1CCN(C(=O)c2cc(OC)c(OC)c(OC)c2)CC1  -0.579
11. Cc1ccc(S(=O)(=O)NCc2csc(C)n2)c(C)c1  -0.542
12. CCOc1ccc(S(=O)(=O)NCCC(=O)NC2=NCCS2)cc1  -0.521
13. COc1ccc(-c2cc(C(F)(F)F)nc(SCc3cccc(C(=O)O)c3)n2)cc1  -0.512
14. COc1ccc(C(=O)NC2CCN(C(=O)NC3CCCCC3)CC2)cc1  -0.51
15. CCS(=O)(=O)CCSc1nc(C)cc(C)c1C#N  -0.438
16. Cc1ccc(C(=O)NCC(=O)OCC(=O)N2CCCc3ccccc32)cc1  -0.431
17. Cc1cc2c(c(=O)n1Cc1cccnc1)C(c1ccccc1)C(C#N)=C(N)O2 (stereo not drawn)  -0.39
18. CCc1cc2c(=O)c(-c3cnn(-c4ccccc4)c3)c(C)oc2c(CN2CCCCC2)c1O  -0.384
19. CCOC(=O)Cn1c(=O)oc2cc(S(=O)(=O)N3CCCc4ccccc43)ccc21  -0.376
20. CCCn1nc2cc(C(=O)NCCc3cccs3)ccc2c1OCC  -0.373
21. O=C1NC(=S)S/C1=C1\Sc2ccccc2N1CCCS(=O)(=O)O  -0.365
22. Cc1ccc(NC(=O)C(SCC(=O)O)c2ccccc2)cc1C (stereo not drawn)  -0.36
23. CCCn1c(SCC(=O)N2c3ccccc3CCc3ccccc32)nc2c1c(=O)n(C)c(=O)n2C  -0.358
24. CCCCNc1nnc(SCC(=O)N2CCN(S(=O)(=O)c3ccc4ccccc4c3)CC2)s1  -0.358
25. Cc1noc(C)c1S(=O)(=O)N(CC(=O)N1CCCC1)c1ccc(C(C)C)cc1  -0.347
26. O=C(c1ccc2c(c1)OCO2)N1CCOCC1  -0.335
27. O=C(O)C1CCC(CNCc2ccccc2Cl)CC1 (stereo not drawn)  -0.333
28. CSc1nc(N2CCOCC2)c2c(c1C#N)CCCCC2  -0.315
29. Cc1ccc(C(CC(=O)NCc2ccco2)c2ccccc2)c(O)c1 (stereo not drawn)  -0.304
30. Cc1oc(C(=O)O)cc1COc1cccc2cccnc12  -0.302
31. CCn1nccc1C(=O)Nc1cc(Cl)cc(Cl)c1  -0.297
32. Cc1ccc(S(=O)(=O)N2CCCC(C(=O)NCc3ccco3)C2)cc1Cl (stereo not drawn)  -0.285
33. CCc1cc(C(=O)OC)c(NC(=O)C2CC(=O)NN2Cc2ccccc2)s1 (stereo not drawn)  -0.283
34. C#CCn1c(S(=O)(=O)Cc2ccc(C)cc2)nc(-c2ccccc2)c1-c1ccccc1  -0.259
35. COc1ccc(NC(=O)C23CC4CC(C2)CC(n2cnc(Br)n2)(C4)C3)cc1OC  -0.248
36. CN(CC(=O)Nc1cccc2c1CCCC2)S(=O)(=O)c1ccccc1  -0.247
37. CCOC(=O)c1sc2nc(CC(=O)OC)nc(NCc3ccco3)c2c1C  -0.245
38. CC(C)CCNC(=O)c1cccc(S(=O)(=O)N2CCc3ccccc32)c1  -0.24
39. O=[N+]([O-])c1cccc(C(=S)N2CCN(c3ccccc3)CC2)c1  -0.237
40. CCC(=O)NCCCCCCCCCNC(=O)CC  -0.227
41. CN(C)CCCNCCCNC(=O)/C=N/O  -0.226
42. CC(C)CN(C(=O)COC(=O)c1ccccc1Sc1ccccc1C#N)C1CCS(=O)(=O)C1 (stereo not drawn)  -0.221
43. Cc1ccc(NC(=O)COC(=O)c2ccn(C)n2)cc1  -0.219
44. CCOc1ccc(NC(=S)/C(=C(\[O-])c2ccc(C)c([N+](=O)[O-])c2)[n+]2ccccc2)cc1  -0.213
45. Cc1cccc(CCNC(=O)C2CCN(S(=O)(=O)c3cccc4nsnc34)CC2)c1  -0.207
46. Cc1noc(C)c1CSc1nc2[nH]ncc2c(=O)n1-c1ccccc1  -0.191
47. Cc1cc(NC(=O)CCC(=O)N(CC2CCCO2)C(C(=O)NC2CCCC2)c2ccccc2C)no1 (stereo not drawn)  -0.179
48. CCOC(=O)c1c(NC(=O)C2C3CCC(O3)C2C(=O)O)sc(C)c1-c1ccc(F)cc1 (stereo not drawn)  -0.176
49. CCc1ccc(CNC(=O)C2CCC(=O)N2C2CCCCC2)cc1 (stereo not drawn)  -0.165
50. N#Cc1nc(-c2ccccc2Cl)oc1NCC1CCCO1 (stereo not drawn)  -0.164
51. O=C(CSc1nc2ccc(Cl)cc2[nH]1)N1CCN(C(=O)c2ccco2)CC1  -0.163
52. Cc1nc2cc(C(=O)OCC(=O)NC34CC5CC(CC(C5)C3)C4)ccc2n1-c1ccccc1  -0.146
53. O=C1CN(C(=O)CSc2nnc(Nc3ccccc3)s2)c2ccccc2N1  -0.133
54. CC(=O)N1N=C(C)CC1c1ccc(O)cc1 (stereo not drawn)  -0.132
55. CN(CCCNC(=O)c1ccc(/C=N/O)nc1)CCCN(C)Cc1ccccc1  -0.117
56. c1ccc(Oc2cc(-c3ccccc3)ncn2)cc1  -0.0979
57. CCN(C(=O)c1c(C)cc(=O)oc1C)c1ccc2c(c1)OCO2  -0.0854
58. Cc1cc([N+](=O)[O-])nn1CC(=O)NNC(=S)Nc1ccc(Cl)cc1  -0.0824
59. Cc1ccc(C=Nc2cc([N+](=O)[O-])ccc2C)s1  -0.082
60. O=C(CS(=O)(=O)Cc1ccccc1)Nc1ccc(Cl)cn1  -0.0774
61. CC1(C)Cc2nc3oc4c(N5CCOCC5)ncnc4c3cc2CO1  -0.0757
62. COc1ccc(N(CC(=O)Nc2c(C)n(C)n(-c3ccccc3)c2=O)S(=O)(=O)c2ccc(F)cc2)cc1  -0.0544
63. CCc1ccc(C(=O)COC(=O)CNC(=O)c2cccs2)cc1  -0.0493
64. CC(=O)Nc1c(C(=O)N2CCN(c3ncccn3)CC2)cnn1-c1ccccc1Cl  -0.0377
65. Cc1cccc(NC(=O)c2ccc([N+](=O)[O-])o2)n1  -0.0205
66. CCCCCCOC1(c2ccccc2)OC(=O)c2ccccc21 (stereo not drawn)  -0.0162
67. C=CCNC(=O)c1onc(CSc2ccccc2F)c1C(=O)O  -0.015
68. COc1ccc(C(=O)NCc2nnc(SCC(=O)N3CCc4ccccc43)n2CCc2ccccc2)cc1  -0.000737
69. O=C(NNC(=O)C1COc2ccccc2O1)c1ccccc1 (stereo not drawn)  0.0265
70. CCN1CCN(C(=O)C2CCN(S(=O)(=O)c3cccc4cccnc34)CC2)CC1  0.0329
71. COCCCNC(=O)c1ccc(N2CCOCC2)c(NS(=O)(=O)c2ccc(OC)cc2)c1  0.0672
72. CCN(CC)C(=O)NC1CC(=O)N(c2ccc(OC)cc2)C1 (stereo not drawn)  0.0777
73. Cc1cc(C)nc(NC2=NCC(=O)N2c2ccc3c(c2)OCCO3)n1  0.0797
74. CCOC(=O)Nc1nnc(-c2ccc(OC)cc2)s1  0.0823
75. c1ccc2c(c1)ncn2CCC1CCCCC1  0.093
76. O=C(Nc1ccccc1)c1cc(-n2cnnc2)ccc1Cl  0.0933
77. OCCOc1ccc(C2=NCCO2)cc1  0.0997
78. O=S1(=O)CCN=C2SC3=C(CCCC3)N21  0.111
79. COc1ccc2[nH]c(C)c(CCN(Cc3cccs3)C(=S)Nc3ccc(F)cc3)c2c1  0.116
80. Fc1ccc(NCc2nnc(SCc3nnc(-c4ccccc4)o3)n2CC2CCCO2)cc1 (stereo not drawn)  0.131
81. CCn1c(-c2cc(-c3cc(OC)ccc3OC)nc3ccccc23)n[nH]c1=S  0.132
82. COC(=O)Cn1c(=O)n(CCc2ccccc2)c(=O)c2c3c(sc21)CCCC3  0.15
83. CCCCC1(CC(=O)OCC)C(=O)N(c2ccccc2)N(c2ccccc2)C1=O  0.157
84. O=C(C(c1ccccc1)c1ccccc1)N1CCC(c2nc(-c3ccccc3Cl)no2)CC1  0.17
85. O=C(COc1ccccc1)Nc1nn[nH]n1  0.183
86. O=C(O)CSc1nnc(CNc2cccc(C(F)(F)F)c2)n1Cc1ccco1  0.202
87. O=C(CSc1nnc(C23CC4CC(CC(C4)C2)C3)o1)Nc1ccc(N2CCOCC2)c(Cl)c1  0.207
88. O=C(Nc1nnc(CCS(=O)(=O)c2ccc3ccccc3c2)s1)c1cccs1  0.209
89. CCSc1nc(C)c(CC)c(C)c1C(N)=O  0.272
90. COc1ccc(NC(=O)/C(=C\c2ccc3c(c2)OCO3)NC(C)=O)cc1  0.277
91. CCN(CC)CCCCOc1ccccc1OC  0.303
92. Cc1nc2ccc(S(=O)(=O)N(C)CC(=O)N3CCc4ccccc4C3)cc2s1  0.317
93. COC(=O)c1cc(Br)c(=O)n(CCc2ccc(F)cc2)c1  0.362
94. CCOC(=O)N1CCN(CC(=O)c2c[nH]c3ccc(F)cc23)CC1  0.432
95. Cc1ccc(-n2c(SCC(=O)Nc3ccc4c(c3)OCO4)nnc2-c2cccs2)cc1  0.524
96. O=C(Nc1nc2ccc(F)cc2s1)C1CCCO1 (stereo not drawn)  0.535
97. COc1ccc(-c2noc(N(C)CC(=O)Nc3cccc(C(F)(F)F)c3)n2)cc1  0.547
98. Cn1c(-c2ccc(Cl)cc2)cnc1NCc1cc2c(cc1[N+](=O)[O-])OCO2  0.55
99. Cc1ccccc1-c1nc2sc3c(c2c(=O)n1N)CCCC3  0.58
100. COc1ccc(C(=O)N/N=C/c2ccc(OC(=O)c3cccc4ccccc34)c([N+](=O)[O-])c2)cc1  0.601
101. O=C1c2oc3ccc(F)cc3c(=O)c2C(c2ccccc2)N1CC1CCCO1 (stereo not drawn)  0.654
102. O=C(CN1CCCC1=O)NC1C2CC3CC(C2)CC1C3 (stereo not drawn)  0.96
103. CN1CCN(S(=O)(=O)c2ccc(NC(=O)c3csc4ccccc34)cc2)CC1  1.16
104. CCOC(=O)c1c(C(C)(C)C)oc2ccc(OCC#N)cc12  1.22
105. COc1ccc(NC(=S)Nc2ccc(C)c(S(=O)(=O)N3CCCCC3)c2)cc1  1.48
106. O=C(CSCc1ccc(Br)cc1)N=Nc1c(O)[nH]c2ccccc12  2.84

For Fc1cccc(-n2c(-c3ccco3)nc3nc4ccccc4nc32)c1, the z-score was active: 3.05.
In the case of COc1ccc(C(=O)NC(=S)N2CCCCC2)cc1, the z-score is reported as active: 3.44.
